Measured values published in ChEMBL document CHEMBL4888484, “Replenishing the malaria drug discovery pipeline: Screening and hit evaluation of the MMV Hit Generation Library 1 (HGL1) against asexual blood stage Plasmodium falciparum ,using a nano luciferase reporter read-out” (2022).
Screen size: about 150,000 compounds; about 540 (0.36%) showed an effect of 50% or more. The list shows a part of the results.

What follows are molecules tested on Plasmodium falciparum (assay: Primary screen in NF54 nanoGlo assay, in single point, at 2uM, 72h; a lower Z score goes with more inhibition). Conditions: timepoint 72 hour.
Assay type: functional, Erythrocyte

In order of falling “% Inhibition” value:
1. COc1snc(C(Cl)(Cl)Cl)c1Cl  41%
2. CCN(CC)CCC1C(=O)N(c2ccccc2)C(=O)N(c2ccccc2)C1=O  36%
3. CC(C)(C)NC(=O)C1CC2CCCCC2CN1 (stereo not drawn)  36%
4. O=c1ccc(-c2cccnc2)c2n1C[C@H]1C[C@@H]2CN(S(=O)(=O)c2ccccc2)C1  31%
5. COCCN1C[C@H]2CN(Cc3ccccn3)CCN2C1=O  31%
6. Cc1cccc(N2CCN(C(=O)CCc3nc(C4=CCN(C)CC4)no3)C[C@@H]2C)c1  16%
7. Cn1cc(CN2CCC3(O)CCCCC3C2)nn1 (stereo not drawn)  13%
8. CC(C)(C)OC(=O)NC[C@H](CC(=O)O)C1CCC1  13%
9. O=c1nc(O)n(Cc2ccccc2)c(O)c1[C@H]1c2ccccc2Oc2nc(O)n(Cc3ccccc3)c(=O)c21  13%
10. CN1CCN(C(=O)Cc2ccc(Cl)c(Cl)c2)[C@H]2CS(=O)(=O)C[C@H]21  9%
11. O=C([C@H]1CN2CCC1C[C@@H]2Cn1cc(C2(O)CCCC2)nn1)N1CCOCC1 (stereo partly drawn)  9%
12. Cc1cc(CC(=O)N2CCN(CC(C)C)[C@@H]3CS(=O)(=O)C[C@@H]32)ccc1F  9%
13. O=C(c1cc(Cl)c(Cl)[nH]1)C(Cl)(Cl)Cl  8%
14. O=C(Cc1cccnc1)N1C[C@H]2CC[C@@H](C1)N(CC1CCC1)C2  7%
15. CCn1ccc2cc(CN(C)[C@@H](C)Cc3cnccn3)ccc21  6%
16. Cn1ncc2c1CCCN(c1ccc(C#N)c(Br)c1)C2  5%
17. c1cncc(Cc2n[nH]c(C3(N4CCOCC4)CCCCC3)n2)c1  4%
18. O=C([C@@H]1CC(c2ccc(Cl)c(Cl)c2)=NO1)N1CCC2(CC1)OCCO2  4%
19. CC(C)=CCN1C[C@@H]2CC[C@H]1CN(C(=O)c1c[nH]c(=O)c(Cl)c1)C2  3%
20. CCOC1CC(NC2CN(C)CC2C)C12CCCC2 (stereo not drawn)  2%
21. O=C(NCCc1nc(=O)o[nH]1)C1(c2cccs2)CCCCC1  2%
22. COCCOCCN1CCC2(CCCCCC2)C1  2%
23. CCC1(CC)C(=O)NC(=NCCCO)NC1=O  1%
24. CC1(O)CNC2CC1(O)Oc1ccccc12 (stereo not drawn)  0%
25. CN(CCN1C[C@@H]2CC[C@H]1C2)Cc1nccs1  0%
26. c1ccc2c(c1)CC1CCCC2C1NCCn1ccnc1 (stereo not drawn)  -1%
27. COc1cc(C[C@H](C)NCc2scnc2C)ccn1  -1%
28. Fc1ccc2c(N3CC[C@@]4(CCCCN4)C3)nccc2c1  -1%
29. NC1(c2nc(-c3ccsc3)no2)CCCCC1  -1%
30. CCn1c(C)cc2[nH]nc(NC(=O)c3cnn(C4CCC4)c3)c2c1=O  -2%
31. c1ccc(CN2C3CCC2CNC3)cc1  -2%
32. Cc1oncc1C(=O)N1C[C@H](c2ccc3c(c2)OCO3)[C@@H]2[C@H]1C1CCN2CC1  -3%
33. CCOc1ccc(NC(=O)N2CC[C@@]3(C2)C(=O)Nc2ccc(OC)cc23)cc1  -3%
34. O=C(O)[C@@]12COc3ccccc3[C@@H]1CN(C1CCCC1)C2  -4%
35. CC(C)C(NC(=O)c1nn(Cc2ccccc2)c2nccc(-c3cccs3)c12)C(C)C  -4%
36. COc1cccc([C@H]2CCN(C/C=C/c3ccco3)C[C@@H]2O)c1  -4%
37. CCN1CCN(C(=O)Cc2c(C)nc3nc(-c4cccs4)nn3c2C)CC1  -5%
38. O=C(Oc1ccccc1)N1CCN(CCCO)CC1  -5%
39. CC(C)(C)c1cn(C[C@H]2C[C@@H]3CCN2C[C@@H]3C(=O)NC2CCCCC2)nn1  -7%
40. CN(C)c1ccc([C@@H]2c3cccn3-c3ccccc3CN2C(=O)NCc2ccc(F)cc2)cc1  -9%
41. CN(C)C(=O)CN1C(=O)[C@@H]2CC[C@H]1CN(Cc1cccnc1N)C2  -9%
42. Cc1cc(CC(=O)N2C(C)CN(C)CC2C)n[nH]1 (stereo not drawn)  -9%
43. c1cncc(CNCCc2ccc3[nH]ccc3c2)c1  -9%
44. CN1C(=O)c2cccnc2O[C@H]2CN(Cc3cccc(F)c3)C[C@H]21  -11%
45. O=c1c2ccccc2nc(-c2cccnc2)n1-c1cccnc1  -11%
46. C=CCc1ccccc1OCC#CCN1CCOCC1  -14%
47. O=c1[nH]c2ccc(S(=O)(=O)N3C[C@H]4CC[C@@H](C3)N(CC3CC3)C4)cc2o1  -15%
48. CCn1nc(C(=O)N2CCC3(CC2)OCCO3)cc1-c1ccc(OC)cc1  -15%
49. O=C(NCCS(=O)(=O)F)c1ccccc1  -15%
50. CC1(C)COC2(CCN(C(=O)C(C)(C)c3cccc(F)c3)CC2)OC1  -17%
51. Cc1ccc([C@H]2N[C@](CO)(Cc3c[nH]c4ccccc34)[C@H]3CN(C)C[C@@H]23)o1  -18%
52. Cc1ccc(C)c(NC(=O)[C@H](C)N2CC=C(c3ccnc4[nH]ccc34)CC2)c1  -19%
53. CCCCN1C(=O)c2ccccc2C(C(=O)N2CCC3(CC2)OCCO3)C1c1cccc(Cl)c1 (stereo not drawn)  -25%
54. Cn1cccc1C(=O)N1C[C@@H]2CC[C@H]1CN(Cc1ccccn1)C2  -26%

In order of rising Z score:
1. COc1snc(C(Cl)(Cl)Cl)c1Cl  -5.24
2. CC(C)(C)NC(=O)C1CC2CCCCC2CN1 (stereo not drawn)  -4.67
3. COCCN1C[C@H]2CN(Cc3ccccn3)CCN2C1=O  -3.54
4. O=c1ccc(-c2cccnc2)c2n1C[C@H]1C[C@@H]2CN(S(=O)(=O)c2ccccc2)C1  -3.46
5. Cc1cccc(N2CCN(C(=O)CCc3nc(C4=CCN(C)CC4)no3)C[C@@H]2C)c1  -2.08
6. Cn1cc(CN2CCC3(O)CCCCC3C2)nn1 (stereo not drawn)  -1.61
7. CC(C)(C)OC(=O)NC[C@H](CC(=O)O)C1CCC1  -1.47
8. CN1CCN(C(=O)Cc2ccc(Cl)c(Cl)c2)[C@H]2CS(=O)(=O)C[C@H]21  -1.34
9. O=c1nc(O)n(Cc2ccccc2)c(O)c1[C@H]1c2ccccc2Oc2nc(O)n(Cc3ccccc3)c(=O)c21  -1.18
10. CCn1ccc2cc(CN(C)[C@@H](C)Cc3cnccn3)ccc21  -1.08
11. O=C([C@H]1CN2CCC1C[C@@H]2Cn1cc(C2(O)CCCC2)nn1)N1CCOCC1 (stereo partly drawn)  -1.08
12. O=C(c1cc(Cl)c(Cl)[nH]1)C(Cl)(Cl)Cl  -0.98
13. Cc1cc(CC(=O)N2CCN(CC(C)C)[C@@H]3CS(=O)(=O)C[C@@H]32)ccc1F  -0.97
14. CCN(CC)CCC1C(=O)N(c2ccccc2)C(=O)N(c2ccccc2)C1=O  -0.89
15. O=C(Cc1cccnc1)N1C[C@H]2CC[C@@H](C1)N(CC1CCC1)C2  -0.87
16. Cn1ncc2c1CCCN(c1ccc(C#N)c(Br)c1)C2  -0.7
17. c1cncc(Cc2n[nH]c(C3(N4CCOCC4)CCCCC3)n2)c1  -0.69
18. O=C([C@@H]1CC(c2ccc(Cl)c(Cl)c2)=NO1)N1CCC2(CC1)OCCO2  -0.58
19. CC(C)=CCN1C[C@@H]2CC[C@H]1CN(C(=O)c1c[nH]c(=O)c(Cl)c1)C2  -0.49
20. O=C(NCCc1nc(=O)o[nH]1)C1(c2cccs2)CCCCC1  -0.31
21. COCCOCCN1CCC2(CCCCCC2)C1  -0.29
22. CCOC1CC(NC2CN(C)CC2C)C12CCCC2 (stereo not drawn)  -0.25
23. CCC1(CC)C(=O)NC(=NCCCO)NC1=O  -0.1
24. CC1(O)CNC2CC1(O)Oc1ccccc12 (stereo not drawn)  -0.06
25. CN(CCN1C[C@@H]2CC[C@H]1C2)Cc1nccs1  -0.06
26. c1ccc2c(c1)CC1CCCC2C1NCCn1ccnc1 (stereo not drawn)  0.1
27. Fc1ccc2c(N3CC[C@@]4(CCCCN4)C3)nccc2c1  0.12
28. NC1(c2nc(-c3ccsc3)no2)CCCCC1  0.14
29. COc1cc(C[C@H](C)NCc2scnc2C)ccn1  0.21
30. c1ccc(CN2C3CCC2CNC3)cc1  0.25
31. CCn1c(C)cc2[nH]nc(NC(=O)c3cnn(C4CCC4)c3)c2c1=O  0.27
32. CCOc1ccc(NC(=O)N2CC[C@@]3(C2)C(=O)Nc2ccc(OC)cc23)cc1  0.4
33. CC(C)C(NC(=O)c1nn(Cc2ccccc2)c2nccc(-c3cccs3)c12)C(C)C  0.45
34. Cc1oncc1C(=O)N1C[C@H](c2ccc3c(c2)OCO3)[C@@H]2[C@H]1C1CCN2CC1  0.46
35. CCN1CCN(C(=O)Cc2c(C)nc3nc(-c4cccs4)nn3c2C)CC1  0.51
36. O=C(Oc1ccccc1)N1CCN(CCCO)CC1  0.53
37. COc1cccc([C@H]2CCN(C/C=C/c3ccco3)C[C@@H]2O)c1  0.8
38. O=C(O)[C@@]12COc3ccccc3[C@@H]1CN(C1CCCC1)C2  0.82
39. Cc1cc(CC(=O)N2C(C)CN(C)CC2C)n[nH]1 (stereo not drawn)  0.84
40. c1cncc(CNCCc2ccc3[nH]ccc3c2)c1  1
41. CC(C)(C)c1cn(C[C@H]2C[C@@H]3CCN2C[C@@H]3C(=O)NC2CCCCC2)nn1  1.1
42. CN(C)c1ccc([C@@H]2c3cccn3-c3ccccc3CN2C(=O)NCc2ccc(F)cc2)cc1  1.12
43. O=c1c2ccccc2nc(-c2cccnc2)n1-c1cccnc1  1.25
44. CN(C)C(=O)CN1C(=O)[C@@H]2CC[C@H]1CN(Cc1cccnc1N)C2  1.36
45. CCn1nc(C(=O)N2CCC3(CC2)OCCO3)cc1-c1ccc(OC)cc1  1.48
46. C=CCc1ccccc1OCC#CCN1CCOCC1  1.54
47. CN1C(=O)c2cccnc2O[C@H]2CN(Cc3cccc(F)c3)C[C@H]21  1.6
48. O=C(NCCS(=O)(=O)F)c1ccccc1  1.6
49. O=c1[nH]c2ccc(S(=O)(=O)N3C[C@H]4CC[C@@H](C3)N(CC3CC3)C4)cc2o1  1.93
50. Cc1ccc(C)c(NC(=O)[C@H](C)N2CC=C(c3ccnc4[nH]ccc34)CC2)c1  1.95
51. CC1(C)COC2(CCN(C(=O)C(C)(C)c3cccc(F)c3)CC2)OC1  1.99
52. CCCCN1C(=O)c2ccccc2C(C(=O)N2CCC3(CC2)OCCO3)C1c1cccc(Cl)c1 (stereo not drawn)  2.21
53. Cc1ccc([C@H]2N[C@](CO)(Cc3c[nH]c4ccccc34)[C@H]3CN(C)C[C@@H]23)o1  2.69
54. Cn1cccc1C(=O)N1C[C@@H]2CC[C@H]1CN(Cc1ccccn1)C2  3.36
